The other results are listed elsewhere or left out.
What follows are sequences tested on PF3D7_0420300 AP2 domain 1 (GST-tagged) (assay: gcPBM binding intensity (ln(normalized median fluorescence intensity)); higher = stronger DNA binding).
Method in brief: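 GST-tagged P. falciparum DNA-binding domains, expressed in E. coli (about 25 μg on average), were applied for 1 h to an Agilent 4 × 180k array of primer-extended double-stranded 36-bp intergenic genomic probes plus negative controls. The binding buffer was 1× PBS with 1% milk, 0.2 mg/ml BSA, 0.5% salmon testes DNA and 0.03% Triton X-100. Bound protein was detected with Alexa488 anti-GST antibody and scanned at 488 nm. Binding intensity is the highest Masliner-normalised natural-log median intensity across replicate spots of either probe orientation.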

Row | Sequence | gcPBM binding intensity (ln)
1 | TTTTGATATAAATATTAGATTAATAAATAAAAAAAT [CACACA_negctrl_site1635] | 8.99
2 | TTTTTTGTTTGAATGGTGCATTTTGTAATTATATTT | 9.5
3 | ATAATATCATAATATTGTACATATTTTATTTTAAAT [XGTACX_site1115] | 9.06
4 | CAACTAACATATATTCAACACACATATACCTTCAAC [CACACA_site8988] | 9.66
5 | GGTCTTATTTTTAGTAGTACAAATATAATATACATA [XGTACX_site6483] | 9.3
6 | TTTTTTTTTTTTTGTTGTACCCATCATATATACATA [XGTACX_site4342] | 9.36
7 | TATAAAAATATTTAATGTACGAATCTGTGATATATC [XGTACX_site7881] | 9.2
8 | ATATATTACATATGTGTGCACGTTCCAAAATTTTTA | 9.59
9 | CTAAACAGAATTATCACACATATAAATATAAACATA [CACACA_site4560] | 9.48
10 | AAAATACACGCATACACACACACACGCGCACATATA [CACACA_site6448] | 10.3
11 | ATTATTAAAAGAAGAAGTACTTATATATTAATATTA [XGTACX_site5227] | 9.02
12 | TTTTCATGTTGTAAAGCATGCTTTACTCATAAAAAA [TGCATGCA_site917] | 8.75
13 | AAATAATATTTATACACACACACATATTTATATACA [CACACA_site6403] | 10.1
14 | TTATTTTATTTTGAAGCATGCTTTTTGCTGTGATAA [TGCATGCA_site278] | 8.8
15 | TTATGCGTTTGCAAAAGTACATATCTATTATTTTTA [XGTACX_site7609] | 9.07
16 | AAAATATACATAAACACACACAAAACGTTTAAGAAA [CACACA_site1071] | 9.91
17 | ATATTAATTTTTATTACACACTCTCAATTTTTATTT [CACACA_site58] | 9.5
18 | GTTTAACTGTTTTATACACACAATGTATCCAATAAA [CACACA_site5612] | 9.49
19 | TTTTAGTTAATTCATGCATGTAAAGTTTTATTTATA [TGCATGCA_site252] | 9.15

Row | Sequence | gcPBM binding intensity (ln)
20 | AAAAAAAAAAAAAAAGTACACACTTTTGCGTACATG [CACACA_site3097] | 9.22
21 | ATGTCTATATATTAAGGTACACATATATGCTATTCA [XGTACX_site6008] | 9.35
22 | TATATATTAAAAATAGTGCAAAATAATATATATATA [GTGCAC_site9716] | 9.44
23 | AATACCTTTTAATAATGTACAAACAAAAATTAGAGA [XGTACX_site6850] | 9.31
24 | AAGGGGAGAAAAATAAACGAAATATATACATACATA [XGTACX_negctrl_site88] | 9.42
25 | ATATATATATATATATGTACATATTCATCTTATTCT [XGTACX_site1537] | 9.44
26 | ACAAATAAATATATATGTACATATATTTTTTTATTT [XGTACX_site2989] | 9.13
27 | TTTTATTTATATTATACACACAAGGAAAAAAAAAAA [CACACA_site7690] | 9.32
28 | TTTATGCACGCGTGCACACACATATGAAAAAAGGTA [CACACA_site3315] | 9.74
29 | TATGTTTAAATATATTGTACGCACGTATGTTTTTAA [XGTACX_site1108] | 9.19
30 | TTTTATTATTTATATACACACTTGCTGAAATGTTAT [CACACA_site5919] | 9.46
31 | TATATACAAATATGCTGTACAAAAAAAAAAAAAAAA [XGTACX_site4732] | 8.85
32 | TATAATAATAATGATAGTACGTATGAGTTCAAAAAA [XGTACX_site608] | 9.43
33 | CGGTATTTTTTAATTTGTACGCATATACAATAATTA [XGTACX_site8603] | 9.18
34 | TTTTTTATTTTAATGTATTATTTTTATGTAATATAT [GTGCAC_negctrl_site391] | 9.23
35 | GATATGATTACCTTATGGTGTTTTTGATGGATAGTT [CACACA_negctrl_site1504] | 9.4
36 | TTATGGAACCCCATTCGTACATAAATATTTTATATA [XGTACX_site7112] | 9.08
37 | GTATAATATGAACACACACACACACCCAAAAAAAAA [CACACA_site5152] | 10.2
38 | ATACATATTAACAAGGTGCAAATGGATTTCATAAAA [GTGCAC_site9775] | 9.39

Row | Sequence | gcPBM binding intensity (ln)
39 | TTTTTTTTTTTGTGAGTGCACGTATGAAGAGAAAAA | 8.85
40 | TATTTATATTTATATACACACTATATAACTCAAACA [CACACA_site6611] | 9.27
41 | AATTGTTCGATATATGCACACAGTTTTGTTATTTTT [CACACA_site1615] | 9.7
42 | TATATAACTTTATTTTTCTTTACTTATTTTATTTTA [GTGCAC_negctrl_site66] | 9.32
43 | CTAGCAAATACATACACACACACACGGATACCTATA [CACACA_site7609] | 10.2
44 | AAAGAAAAAAAAAAAAGTACATAAATATAAAAAGAA [XGTACX_site6753] | 9.37
45 | TTTTTTAAAATATATATAATGAATTTTTTTTTTTTT [CACACA_negctrl_site1577] | 8.73
46 | ATATATATATATATATGTACATATTATTAATAATAT [XGTACX_site6667] | 9.21
47 | TATTTCACAACTTGTCGTACATTAATTGTATTATTT [XGTACX_site997] | 9.51
48 | TATATAACTGTCTTCACACACACATATAAATAAATA [CACACA_site7317] | 9.77
49 | ATTATTATTAATAGTACACACTATGGCATTTCAATA [CACACA_site5388] | 9.39
50 | TTAGGTGTATATAATTGTACATTTTGGAAATTATAC [XGTACX_site5492] | 9.12
51 | ATCTTTCATCTACCAAGTACAAATTACTTTTTTTTT [XGTACX_site7001] | 9.51
52 | TCTTATTTAAAAATAGCACACATTATGTATATATAT [CACACA_site2822] | 9.25
53 | AGCTCGGAAAAATTAGCATGCAAAAAAAAAAAAAAA [TGCATGCA_site658] | 8.63
54 | TGAAACCATAAAGAATGTACACAGCGGTATAAGTTA [XGTACX_site674] | 9.4
55 | TTAATATATTTAAATATATATAAAATATATAATATG [CACACA_negctrl_site880] | 8.91
56 | TTTTAAATAATACATACATGCATATATACACATATA [TGCATGCA_site8] | 9.14
57 | AATAAAATAAGAAGCACACAAATATTATATATAAAA [CACACA_site3980] | 9.64

Reference: the supplement of paper PMC11417369
